Here are results for 20 molecules from patent US20180021277A1, “ANTI-VIRULENCE COMPOSITIONS AND METHODS” (priority 2012, published 2018).

Data set [1] deals with MRSA strain USA300. Kind of data set: microbe, parasite or virus in culture. To be noted: for hemolysis at 1 µg/mL / hemolysis at 10 µg/mL: Staphylococcus aureus, Erythrocyte, in Oryctolagus cuniculus; for hemolysis at 1 µg/mL / hemolysis at 10 µg/mL / Hemolysis: DMSO control = 100; for inhibition of rabbit blood hemolysis compared to diflunisal: 1 μg/mL.
The subject of data set [2] is MRSA strain USA300. Kind of data set: microbe, parasite or virus in culture. To be noted: for activity at 1 µg/mL / activity at 10 µg/mL: Staphylococcus aureus, read-out: Growth; for Growth: DMSO control = 100; for effect on the growth of the bacteria: 1 μg/mL.

Take `Cc1cc(C(=O)COc2ccc(F)c(F)c2)c(O)cc1O` [4d-14]: in data set [1] (1 μg/mL compound), the hemolysis at 1 µg/mL amounted to 221 ± 20.5%. The hemolysis at 10 µg/mL in data set [1] (10 μg/mL compound) stood at 3.1 ± 0.3%. In data set [2], the activity at 1 µg/mL came to 106% and the activity at 10 µg/mL came to 109%.
On to `Cc1cc(C(=O)COc2cc(F)cc(F)c2)c(O)cc1O` [4d-15], for which, in data set [1] (1 μg/mL compound), the hemolysis at 1 µg/mL is 149 ± 19.2%. Moreover, in data set [1] (10 μg/mL compound), the hemolysis at 10 µg/mL was determined as 12.5 ± 3.2%. In addition, in data set [2], the activity at 1 µg/mL amounted to 101% and the activity at 10 µg/mL amounted to 102%.
`Cc1cc(C(=O)COc2cc(F)c(F)cc2F)c(O)cc1O` [4d-16] displayed a Hemolysis in data set [1] (10 μg/mL compound) of 28.3 ± 6.6%. Also, the Growth in data set [2] (10 μg/mL compound) turned out to be 100.5%.
Regarding `Cc1cc(C(=O)COc2ccc(C(C)C)cc2)c(O)cc1O` [4d-19], the “inhibition of rabbit blood hemolysis compared to diflunisal” value (shortened to “inhibition … compared to diflunisal”) in data set [1] is reported as “greater inhibition of rabbit blood hemolysis”. The hemolysis at 1 µg/mL in data set [1] (1 μg/mL compound) was 29 ± 0.5%. The hemolysis at 10 µg/mL in data set [1] (10 μg/mL compound) was 1 ± 0.1%. Also, in data set [2], the “effect on the growth of the bacteria” value was “without affecting the growth of the bacteria”, the activity at 1 µg/mL amounted to 99.5% and the activity at 10 µg/mL is 5.2%.
Consider `Cc1cc(C(=O)COc2ccc(C(C)(C)C)cc2)c(O)cc1O` [4d-20], for which, in data set [1], the “inhibition … compared to diflunisal” value is recorded as “greater inhibition of rabbit blood hemolysis”. Further, the hemolysis at 1 µg/mL in data set [1] (1 μg/mL compound) is 22.9 ± 0.5%. Also, in data set [1] (10 μg/mL compound), the hemolysis at 10 µg/mL is -0.6 ± 0.1%. In data set [2], the “effect on the growth of the bacteria” value is listed as “without affecting the growth of the bacteria”, the activity at 1 µg/mL amounted to 104% and the activity at 10 µg/mL was determined as 0.9%.
`Cc1cc(C(=O)COc2ccc(-c3ccccc3)cc2)c(O)cc1O` [4d-21]: the hemolysis at 1 µg/mL in data set [1] (1 μg/mL compound) worked out at 52.1 ± 10.8%. Further, in data set [1] (10 μg/mL compound), the hemolysis at 10 µg/mL was 5.7 ± 1.3%. In addition, in data set [2], the activity at 1 µg/mL was 108% and the activity at 10 µg/mL was 3.2%.
Regarding `Cc1cc(C(=O)COc2ccc([N+](=O)[O-])cc2)c(O)cc1O` [4d-22], the Hemolysis in data set [1] (10 μg/mL compound) is listed as 98.8 ± 11.0%. Besides, the Growth in data set [2] (10 μg/mL compound) stood at 101.7%.
As to `COC(=O)c1cccc(OCC(=O)c2cc(C)c(O)cc2O)c1` [4d-28], the hemolysis at 10 µg/mL in data set [1] (10 μg/mL compound) was determined as 14.6 ± 1%. Further, the activity at 10 µg/mL in data set [2] was determined as 96.7%.
For `CCCc1cc(C(=O)COc2cccc(F)c2)c(O)cc1O` [4e-1], in data set [1], the “inhibition … compared to diflunisal” value is “greater inhibition of rabbit blood hemolysis”. Also, the hemolysis at 1 µg/mL in data set [1] (1 μg/mL compound) worked out at 36.9 ± 1.1%. For the same molecule, the hemolysis at 10 µg/mL in data set [1] (10 μg/mL compound) was determined as 1.6 ± 0.2%. Besides, in data set [2], the “effect on the growth of the bacteria” value was “without affecting the growth of the bacteria”, the activity at 1 µg/mL worked out at 104% and the activity at 10 µg/mL was 55.2%.
Regarding `CCCc1cc(C(=O)COc2ccccc2Cl)c(O)cc1O` [4e-2], the “inhibition … compared to diflunisal” value in data set [1] is “greater inhibition of rabbit blood hemolysis”. Further, the hemolysis at 1 µg/mL in data set [1] (1 μg/mL compound) came to 20.3 ± 1.9%. Moreover, in data set [1] (10 μg/mL compound), the hemolysis at 10 µg/mL turned out to be 1.3 ± 0.1%. Besides, in data set [2], the “effect on the growth of the bacteria” value was “without affecting the growth of the bacteria”, the activity at 1 µg/mL turned out to be 102% and the activity at 10 µg/mL amounted to 3.2%.
Take `CCCc1cc(C(=O)COc2ccc(Br)cc2)c(O)cc1O` [4e-7]: the hemolysis at 10 µg/mL in data set [1] (10 μg/mL compound) was determined as 74.3 ± 13.7%. Further, the activity at 10 µg/mL in data set [2] was 97.8%.
Take `CCCc1cc(C(=O)COc2ccc(I)cc2)c(O)cc1O` [4e-8]: the “inhibition … compared to diflunisal” value in data set [1] is “greater inhibition of rabbit blood hemolysis”. The hemolysis at 1 µg/mL in data set [1] (1 μg/mL compound) amounted to 27.6 ± 2.7%. In addition, in data set [1] (10 μg/mL compound), the hemolysis at 10 µg/mL was 16.7 ± 0.5%. In data set [2], the “effect on the growth of the bacteria” value is reported as “without affecting the growth of the bacteria”, the activity at 1 µg/mL worked out at 99.5% and the activity at 10 µg/mL is 89.9%.
Turning to `CCCc1cc(C(=O)COc2cccc(C)c2)c(O)cc1O` [4e-10], in data set [1], the “inhibition … compared to diflunisal” value was “greater inhibition of rabbit blood hemolysis”. Further, the hemolysis at 1 µg/mL in data set [1] (1 μg/mL compound) was determined as 18.7 ± 0.7%. Besides, in data set [1] (10 μg/mL compound), the hemolysis at 10 µg/mL came out at 11.5 ± 1.2%. In data set [2], the “effect on the growth of the bacteria” value is given as “without affecting the growth of the bacteria”, the activity at 1 µg/mL worked out at 98.9% and the activity at 10 µg/mL stood at 88.4%.
Consider `CCCc1cc(C(=O)COc2ccc(C)cc2)c(O)cc1O` [4e-11], for which the hemolysis at 10 µg/mL in data set [1] (10 μg/mL compound) amounted to 30.3 ± 4.2%. Moreover, the activity at 10 µg/mL in data set [2] turned out to be 96.2%.
Take `CCCc1cc(C(=O)COc2c(F)cccc2F)c(O)cc1O` [4e-13]: the “inhibition … compared to diflunisal” value in data set [1] was “greater inhibition of rabbit blood hemolysis”. Further, the Hemolysis in data set [1] (1 μg/mL compound) is given as 27.3 ± 1.9%; in data set [1] (10 μg/mL compound) it was 1.3 ± 0.1%. The “effect on the growth of the bacteria” value in data set [2] is “without affecting the growth of the bacteria”. Besides, the Growth in data set [2] (1 μg/mL compound) was found to be 105.9%; in data set [2] (10 μg/mL compound), 38%.
In the case of `CCCc1cc(C(=O)COc2cc(F)c(F)c(F)c2)c(O)cc1O` [4e-17], in data set [1], the “inhibition … compared to diflunisal” value is “greater inhibition of rabbit blood hemolysis”. For the same molecule, the hemolysis at 1 µg/mL in data set [1] (1 μg/mL compound) is 14.8 ± 0.4%. In addition, the hemolysis at 10 µg/mL in data set [1] (10 μg/mL compound) was -2.4 ± 0.3%. Moreover, in data set [2], the “effect on the growth of the bacteria” value is recorded as “without affecting the growth of the bacteria”, the activity at 1 µg/mL turned out to be 105% and the activity at 10 µg/mL was found to be 77.5%.
On to `CCCc1cc(C(=O)COc2c(F)c(F)c(F)c(F)c2F)c(O)cc1O` [4e-18], for which the hemolysis at 1 µg/mL in data set [1] (1 μg/mL compound) is 41.9 ± 0.4%. For the same molecule, the hemolysis at 10 µg/mL in data set [1] (10 μg/mL compound) was -2.9 ± 0.4%. For the same molecule, in data set [2], the activity at 1 µg/mL was determined as 97.5% and the activity at 10 µg/mL worked out at 1.3%.
In the case of `CCCc1cc(C(=O)COc2ccc(C(C)C)cc2)c(O)cc1O` [4e-19], the “inhibition … compared to diflunisal” value in data set [1] was “greater inhibition of rabbit blood hemolysis”. The hemolysis at 1 µg/mL in data set [1] (1 μg/mL compound) was 22.9 ± 0.6%. Moreover, in data set [1] (10 μg/mL compound), the hemolysis at 10 µg/mL is -2.1 ± 0.1%. In data set [2], the “effect on the growth of the bacteria” value was “without affecting the growth of the bacteria”, the activity at 1 µg/mL was determined as 95.6% and the activity at 10 µg/mL is 6%.
As to `CCCc1cc(C(=O)COc2ccc(-c3ccccc3)cc2)c(O)cc1O` [4e-21], in data set [1], the “inhibition … compared to diflunisal” value is listed as “greater inhibition of rabbit blood hemolysis”. In addition, the hemolysis at 1 µg/mL in data set [1] (1 μg/mL compound) turned out to be 24.2 ± 0.5%. Further, the hemolysis at 10 µg/mL in data set [1] (10 μg/mL compound) stood at 0.2%. In data set [2], the “effect on the growth of the bacteria” value is listed as “without affecting the growth of the bacteria”, the activity at 1 µg/mL was 83.5% and the activity at 10 µg/mL came out at 5.2%.
As to `CCCc1cc(C(=O)COc2ccc(C(=O)O)cc2)c(O)cc1O` [4e-25], the Hemolysis in data set [1] (1 μg/mL compound) came out at 66.1 ± 4.7%; in data set [1] (10 μg/mL compound), 8.3 ± 0.5%. Moreover, the results for the Growth in data set [2] (1 μg/mL compound) and in data set [2] (10 μg/mL compound) were 102.8% and 102.1%, respectively.
